Hit rate of the full screen: of about 310,000 compounds, about 14,000 (4.5%) showed an effect of 50% or more. Effects have a minus sign here. The list shows a part of the results.
Molecular target: human ether-à-go-go-related gene (hERG) potassium channel (human, UniProt Q12809)
Assay: primary screen, population patch clamp on CHO cells stably expressing hERG
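Note: peak tail current of the secondary pulse compared with the same well before compound.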

Chain of human ether-à-go-go-related gene (hERG) potassium channel (Q12809 whole entry, looked up): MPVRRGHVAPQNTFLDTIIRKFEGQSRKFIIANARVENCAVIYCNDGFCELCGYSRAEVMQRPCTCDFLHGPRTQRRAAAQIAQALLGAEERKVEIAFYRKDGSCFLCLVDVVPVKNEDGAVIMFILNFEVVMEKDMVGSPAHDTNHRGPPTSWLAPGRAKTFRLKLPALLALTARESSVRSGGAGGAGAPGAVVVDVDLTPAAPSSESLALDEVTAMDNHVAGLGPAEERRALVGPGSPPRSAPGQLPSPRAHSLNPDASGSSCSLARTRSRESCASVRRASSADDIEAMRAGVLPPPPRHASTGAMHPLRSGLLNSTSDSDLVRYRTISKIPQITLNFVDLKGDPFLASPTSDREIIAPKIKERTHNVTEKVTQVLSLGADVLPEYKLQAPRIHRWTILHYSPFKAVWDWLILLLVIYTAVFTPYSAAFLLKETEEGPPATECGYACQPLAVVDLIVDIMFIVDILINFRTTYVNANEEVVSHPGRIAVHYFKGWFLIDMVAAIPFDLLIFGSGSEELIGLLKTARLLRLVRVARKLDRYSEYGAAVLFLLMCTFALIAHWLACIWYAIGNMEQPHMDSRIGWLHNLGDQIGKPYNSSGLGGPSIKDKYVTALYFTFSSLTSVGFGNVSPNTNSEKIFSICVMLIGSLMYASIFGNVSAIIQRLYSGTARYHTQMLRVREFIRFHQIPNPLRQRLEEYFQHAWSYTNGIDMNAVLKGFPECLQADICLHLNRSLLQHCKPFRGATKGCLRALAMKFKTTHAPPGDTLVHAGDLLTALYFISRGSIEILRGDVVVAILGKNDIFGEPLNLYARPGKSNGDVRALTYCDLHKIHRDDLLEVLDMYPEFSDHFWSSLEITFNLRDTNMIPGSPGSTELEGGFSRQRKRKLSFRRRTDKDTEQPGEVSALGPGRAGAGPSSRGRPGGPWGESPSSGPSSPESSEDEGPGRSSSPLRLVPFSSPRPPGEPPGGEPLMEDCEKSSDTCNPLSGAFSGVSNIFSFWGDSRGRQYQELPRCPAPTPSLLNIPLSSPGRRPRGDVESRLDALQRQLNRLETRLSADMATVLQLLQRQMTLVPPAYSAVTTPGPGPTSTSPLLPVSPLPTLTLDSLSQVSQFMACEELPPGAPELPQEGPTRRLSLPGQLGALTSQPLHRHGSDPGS

Row | Compound | hERG current change (%, negative = inhibition) at 10uM [%]
1 | COc1ccc(OCc2nnc(SCC(=O)Nc3ccccc3C#N)o2)cc1 | -22.5
2 | Cc1ccc(S(=O)(=O)n2nccc2-c2c(-c3ccc(Cl)cc3)noc2C)cc1 | 4.61
3 | COC(=O)CCC(=O)Nc1sc(C)c(C)c1C(N)=O | 19.3
4 | CS(=O)(=O)NCCCCCCNS(C)(=O)=O | 2.81
5 | COc1ccc(OCC(N)=O)cc1 | 8.9
6 | OCC12COC3c4ccccc4C(OC1)N32 (centres unmarked) | 4.86
7 | O=C(O)c1cccc(N/N=C/c2cccs2)c1 | -7.16
8 | COc1ccc(C(=O)C2CCCN(C(=O)CCNC(C)=O)C2)cc1OC (centres unmarked) | 20.3
9 | Cc1ccc(C)c(NC(=O)Cc2nc(CCl)cs2)c1 | -14.1
10 | Cc1ccc(F)cc1NC(=O)C12CC3CC(C1)CC(n1cnc([N+](=O)[O-])n1)(C3)C2 | -52.8
11 | O=C(CSc1nc(Nc2ccccc2)nc(N2CCOCC2)n1)Nc1cccc([N+](=O)[O-])c1 | 6.17
12 | COc1ccc(NS(=O)(=O)c2cccc(Cl)c2)cc1S(=O)(=O)N1CCCCC1 | 7.81
13 | CCOC(=O)C1=C(C)Nc2ncnn2C1c1ccc2c(c1)OCO2 (centres unmarked) | 1.81
14 | O=C(O)CCCCCCC1C(=O)NC(=O)N1CCC(O)C1CCCCC1 (centres unmarked) | -6.49
15 | O=C(Nc1ccc(Cl)cc1Cl)C1CCC(=O)N1Cc1ccccc1Cl (centres unmarked) | -2.67
16 | COc1ccccc1NC(=O)N(CCN1CCOCC1)Cc1cc2cc(C)cc(C)c2[nH]c1=O | -33.2
17 | CCOC(=O)C1CCN(Cc2ccc(OC)c(OCc3ccccc3)c2)CC1 | -38.3
18 | CCc1ccc(CCC(=O)Nc2ccccc2C(=O)O)o1 | 11
19 | Cc1cc(CN2CCCC(C(=O)Nc3ccc(-c4nc5ccccc5[nH]4)cc3)C2)n[nH]1 (centres unmarked) | -14.2

Row | Compound | hERG current change (%, negative = inhibition) at 10uM [%]
20 | COc1cccc(C(=O)Nc2cc(Cl)c(O)c(Cl)c2)c1 | -2.64
21 | CC1Cc2cc(S(=O)(=O)CCC(=O)N3CCN(c4ccccc4)CC3)ccc2N1C(=O)C1CC1 (centres unmarked) | -26.3
22 | COC(=O)c1cc(=O)c2c(C)nc(C(Cl)(Cl)Cl)nc2[nH]1 | -2.94
23 | C[n+]1ccn(CC(=O)c2ccc(Cl)cc2)c1.[Br-] | -3.61
24 | CN(CC(=O)Nc1ccc(S(=O)(=O)N2CCCC2)cc1)Cc1ccc(Cl)c(Cl)c1 | 0.187
25 | CCN(CC)CCNc1cc(C)c(C#N)c2nc3ccccc3n12 | -20.6
26 | CCOC(=O)C1CCN(C(=O)Nc2ccc(Cl)cc2)CC1 | -10.5
27 | O=C(CN1CCN(c2ccc(O)cc2)CC1)Nc1ccc(-c2ccccc2)cc1 | -5.1
28 | CC1=NN(CCc2ccccn2)C(=O)CC1 | 15.6
29 | COC(=O)C1=C(c2cc3ccccc3s2)C[C@@H]2CC[C@H]1N2C(=O)NCc1ccco1 | -20.8
30 | Cc1cc(C)c(S(=O)(=O)N2CCCOC2CNC(=O)C(=O)NCc2ccncc2)c(C)c1 (centres unmarked) | -1.48
31 | Cn1cnc2cc(NCc3ccccc3O)ccc21 | 6.3
32 | O=C(CN1CCN(c2ccccc2O)CC1)NC(c1ccccc1)c1ccccc1 | -22.7
33 | COc1ccc(NC(=O)CNS(=O)(=O)c2ccc3nc(C)sc3c2)c(OC)c1 | -8.28
34 | C=CCN1C(=O)C(CC(=O)O)SC1=Nc1ccc(C(=O)O)cc1 (centres unmarked) | 20.9
35 | CC(=O)Cc1cc(=O)c2c(C)cc(O)c(C3OC(CO)C(O)C(O)C3O)c2o1 (centres unmarked) | 5.85
36 | CCc1ccc(N(C(=O)CCC(=O)Nc2cc(C)on2)C(C(=O)NC(C)(C)C)c2ccc(OC)cc2)cc1 (centres unmarked) | -8.1
37 | Cc1ccccc1NC(=O)CN1C(=O)NC2(CCc3ccccc32)C1=O (centres unmarked) | 5.57
38 | CC(=O)Nc1ccc(/C=C2\Sc3ccccc3C2=O)cc1 | 2.33

Row | Compound | hERG current change (%, negative = inhibition) at 10uM [%]
39 | C=CCNC(=O)/C(C#N)=C/c1c(N2CCN(c3cccc(Cl)c3)CC2)nc2c(C)cccn2c1=O | 17.1
40 | Cc1cc(C)n(CC(=O)N2CCc3ccccc32)c(=O)c1C#N | 20.7
41 | O=C(c1ccc(S(=O)(=O)N2CCCCC2)cc1)N1CCN(CCN2C(=O)c3cccc4cccc(c34)C2=O)CC1 | 26
42 | N#Cc1ccc(-c2c(-c3ccccc3)ncc3cc(F)ccc23)cc1 | 7.11
43 | N#Cc1cccc2cccc(S(=O)(=O)N3CCOCC3)c12 | -3.63
44 | Cc1ccccc1CNC(=O)Cn1ccc2cc(S(=O)(=O)N3CCCCCC3)ccc21 | 19
45 | Cn1c(COc2ccc3ccccc3c2)nnc1SCC(=O)O | 8.77
46 | O=C(NCCCn1cccn1)c1cc(COc2ccc(F)cc2Cl)on1 | -43.8
47 | CC1CCCCN1C(=O)CN1CCC(c2nc3ccc(Cl)cc3[nH]2)CC1 (centres unmarked) | -60.2
48 | S=C(Nc1ccc(Br)cc1)Nc1ccc2c(c1)OCCO2 | 20.5
49 | CC(C)Cc1nc2n[nH]c(N)c2c2c1CCCC2 | 1.39
50 | CCCc1cc(O)c2c(C)cc(=O)oc2c1 | 6.51
51 | O=C(O)CSC(NC(=O)c1cccnc1)(C(F)(F)F)C(F)(F)F | 6.73
52 | CC[C@H](C)[C@@H](C(=O)NCCCCCCCCCCC(=O)N1CCN(C(=O)OC(C)(C)C)CC1)n1cc(CCCCN=C(NC(=O)OC(C)(C)C)NC(=O)OC(C)(C)C)nn1 | 2.47
53 | CCN(CC)c1ccc(/C=C(\C#N)C(=O)NCc2ccccc2)cc1 | -6.8
54 | COC(=O)c1ccccc1NC(=O)CN1CCc2ccccc2C1 | -8.92
55 | CCC(=O)Nc1nc2ccccc2n1CCN1CCOCC1 | 16.2
56 | CCN(CC)CCCN(C(=O)c1ccco1)c1nc(-c2ccc(Cl)cc2)cs1.Cl | -71.2

Reference: PMC4336329 (PLoS ONE, 2015)
